About 6,400 (1.6%) of roughly 410,000 compounds were called active. The inconclusive results got no clear call from the source; some entries with a clear call stand among them for comparison. Calls come from the whole dose curve; as a rule, active = well fitted inhibition curve with a large enough effect; inconclusive = small, poorly fitted or top-dose-only effect; inactive = no such curve, though single readings can be large or run the other way. Potencies of inconclusive entries are doubtful fits and often do not repeat.
Each compound was assayed against Glucagon-like peptide 1 receptor (Homo sapiens) (UniProt P43220) (assay: qHTS of GLP-1 Receptor Inverse Agonists (Inhibition Mode)). Details: HEK293 GLP-1R CRE-luciferase, luminescence, 24 h, GLP-1R form is constitutively active; activity change, negative = inhibition: at 38.3 µM (top of the series) unless noted.
How it was run: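 Stable HEK293 clone (constitutively active GLP-1R + cAMP-response luciferase); 200 cells/uL plated, 12 h pre-culture, compound 24 hr, 37 deg C/5% CO2; detection reagent 12 min RT; luminescence.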
% is set by controls: 0 for no effect and ±100 for the full control effect; potency is the fitted concentration of half-maximal effect; tags give direction and shape of the fitted curve.
Note: nearly all actives have a fitted effect of over 55% in size.

Sequence of UniProt P43220 (P43220 whole entry, looked up): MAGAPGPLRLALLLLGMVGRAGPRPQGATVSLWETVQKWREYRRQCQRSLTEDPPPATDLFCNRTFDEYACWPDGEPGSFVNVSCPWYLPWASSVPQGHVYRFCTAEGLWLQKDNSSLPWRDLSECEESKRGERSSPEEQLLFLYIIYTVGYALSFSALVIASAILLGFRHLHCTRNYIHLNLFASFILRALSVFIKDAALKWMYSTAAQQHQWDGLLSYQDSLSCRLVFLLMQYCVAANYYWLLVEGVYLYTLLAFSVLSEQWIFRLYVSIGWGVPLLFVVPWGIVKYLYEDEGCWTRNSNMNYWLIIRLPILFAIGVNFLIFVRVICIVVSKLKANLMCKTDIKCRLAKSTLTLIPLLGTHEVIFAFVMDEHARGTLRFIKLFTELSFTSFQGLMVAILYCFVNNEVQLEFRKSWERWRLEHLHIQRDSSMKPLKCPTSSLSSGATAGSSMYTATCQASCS

Potency, inconclusive:
Cc1noc(C)c1CSc1nc2ccccc2c(=O)n1-c1ccccc1 8.91 µM [inhibitor, partial curve, poor fit]
CC1(c2ccccc2Cl)NC(=O)N(CC(=O)NCc2ccc3c(c2)OCO3)C1=O (centres undefined) 31.6 µM [inhibitor, single point]
COc1cccc(C(=O)/C=C2\Sc3ccccc3N2C)c1 28.2 µM [inhibitor, single point]
O=C(Nc1nccs1)C1(c2ccc(Cl)cc2)CC1 28.2 µM [inhibitor, single point]
CC(NC(=O)CCNS(=O)(=O)c1cccc2nsnc12)c1ccccc1 (centres undefined) 28.2 µM [inhibitor, single point]
CCN(CC)S(=O)(=O)c1ccc(Cl)c(NC(=O)CCCCl)c1 11.2 µM [inhibitor, partial curve]
CN1CCC(N(C)S(=O)(=O)c2ccc(NC(=O)Cc3ccc(F)cc3)cc2)CC1 10 µM [inhibitor, partial curve]
CC(C)(C)n1nnnc1C(c1ccccc1OC(F)(F)F)N1CCN(C/C=C/c2ccccc2)CC1 (centres undefined) 7.94 µM [inhibitor, partial curve, poor fit]
COc1cccc(-c2cc(C(=O)Nc3ccc(N(C)C(C)=O)cc3)c3cc(Br)ccc3n2)c1 8.91 µM [inhibitor, single point]
COc1ccc(OC)c(NC(=O)CSc2nc3ccccc3nc2N2CCCCC2)c1 10 µM [inhibitor, partial curve, poor fit]
Cc1ccc(C(=O)N2CCCCCC2)cc1Br 11.2 µM [inhibitor, single point]
COc1ccc(CCNC(=O)c2ccc(S(=O)(=O)N(C)c3ccccc3)cc2)cc1OC 14.1 µM [inhibitor, single point]
CCOC(=O)CN1C(=O)/C(=C/c2c(F)cccc2Cl)Oc2ccccc21 1.58 µM [inhibitor, full curve, poor fit]
Cc1cc(O)c2c(c1O)C(=O)[C@]13C(=C2O)C(=O)[C@@H]2[C@@H](O)[C@H]1[C@@H]1[C@H](O)[C@H]3C(=O)C3=C(O)c4c(O)cc(C)c(O)c4C(=O)[C@]312 2 µM [inhibitor, full curve, poor fit]
S=C(c1ccc(N2CCCC2)cc1)N1CCCCC1 11.2 µM [inhibitor, single point]
COc1ccc(C(=O)N/N=C/c2ccc3cccc(OCc4ccccc4)c3n2)cc1 11.2 µM [inhibitor, partial curve, poor fit]
COc1cc(OC)cc(C(=O)NCCC(c2ccccc2)c2ccccc2)c1 11.2 µM [inhibitor, partial curve, poor fit]
O=C(Nc1ccccc1)c1ccc(Br)c(S(=O)(=O)N2CCCCC2)c1 12.6 µM [inhibitor, single point]
Cc1ccc(-c2c(C)sc3nc[nH]c(=O)c23)cc1C 10 µM [inhibitor, partial curve, poor fit]
COc1cc(CNCc2ccc(OC)c(OC)c2OC)cc(OC)c1 14.1 µM [inhibitor, single point]
CNC(=O)c1ccsc1NC(=O)C1CCN(S(=O)(=O)c2ccc(Cl)s2)CC1 7.94 µM [inhibitor, single point]
Cc1ccc(OCCn2c(=S)[nH]c3ccccc32)c(C(C)C)c1 22.4 µM [inhibitor, single point]
Cc1cc(C)c(NC(=S)NCC2CCN(C(C)c3ccccc3)C2)c(C)c1 (centres undefined) 11.2 µM [inhibitor, partial curve, poor fit]
Cc1cccc(C(=O)NC2CCCCCCC2)c1 22.4 µM [inhibitor, single point]
CCCN(CCC)Cc1cc(=O)oc2ccc3ccccc3c12 11.2 µM [inhibitor, partial curve, poor fit]
O=C(Cc1ccccc1)NC(NNc1ccccc1)(C(F)(F)F)C(F)(F)F 15.8 µM [inhibitor, single point]
CCOc1ccc(S(=O)(=O)NCC(c2ccc(N(C)C)cc2)N2CCc3ccccc32)cc1 (centres undefined) 15.8 µM [inhibitor, single point]
O=c1c2cc(NC(=S)NC3CCCCC3)ccc2nc2n1CCCCC2 2.51 µM [inhibitor, full curve]
CCCCN(C)S(=O)(=O)c1cc(-c2cc(C)no2)ccc1C 12.6 µM [inhibitor, partial curve, poor fit]
CCOc1ccc(NC(=S)N2CCC(C(=O)c3ccc(F)cc3)CC2)cc1 28.2 µM [inhibitor, partial curve, poor fit]
COc1ccc(S(=O)(=O)N2CCCCCC2)cc1C(=O)NCCc1ccccc1 10 µM [inhibitor, single point]
CCCCOc1ccc(C(O)(CCC)CCN2CCOCC2)cc1 (centres undefined) 11.2 µM [inhibitor, partial curve, poor fit]
Cc1sc2nc(-c3ccccn3)[nH]c(=O)c2c1-c1ccccc1 28.2 µM [inhibitor, single point]
Cc1cc(C2(c3ccc(O)c(C)c3)OC(=O)c3ccccc32)ccc1O 28.2 µM [inhibitor, single point]
Cc1ccc(NC(=O)/C(=C/c2cccc(Br)c2)NC(=O)c2ccco2)cc1 11.2 µM [inhibitor, partial curve, poor fit]
Cc1cccc(N2CCN(c3ncnc4onc(C)c34)CC2C)c1 (centres undefined) 10 µM [inhibitor, partial curve]
Cc1ccccc1-c1ccccc1CN1[C@@H](C(C)C)COCCS1(=O)=O 12.6 µM [inhibitor, single point]
COc1ccc(C(=O)NCC(=O)N=Nc2c(O)n(Cc3ccccc3)c3ccccc23)cc1OC 28.2 µM [inhibitor, single point]
O=C(NNC(=O)c1ccc(Oc2cc(Cl)cc(Cl)c2)o1)c1ccccc1 10 µM [inhibitor, partial curve, poor fit]
CCCCn1c(-c2cccc3ccccc23)nc2cc3[nH]c(=O)c(C(C)C)nc3cc21 28.2 µM [inhibitor, single point]
Cc1cc(C(=O)NC2CCCN(Cc3ccc(Cl)cc3)C2)no1 (centres undefined) 28.2 µM [inhibitor, single point]
CCOC(=O)c1c(C)nc(C)c(C(=O)OCC)c1-c1cccc([N+](=O)[O-])c1 28.2 µM [inhibitor, single point]
CC1CCCCN1CCNC(=O)c1ccc2c(c1)N(Cc1ccccc1)C(=O)c1ccccc1S2(=O)=O (centres undefined) 11.2 µM [inhibitor, partial curve, poor fit]
Cc1cccc(NS(=O)(=O)c2ccc(C)c(NS(=O)(=O)c3cccs3)c2)c1 20 µM [inhibitor, single point]
COc1ccc(CCNC(=O)[C@H](CC(C)C)NC(=O)N2CCn3c2nc2ccccc23)cc1OC 28.2 µM [inhibitor, partial curve, poor fit]
O=C(CNC(=O)c1ccc(F)cc1)c1ccc(Cl)cc1 28.2 µM [inhibitor, single point]
CC(C)(C)NC(=O)NC(=O)C[n+]1ccc(Cc2ccc([N+](=O)[O-])cc2)cc1 28.2 µM [inhibitor, single point]
COc1cc(Cl)ccc1NC(=S)N(CCCN1CCOCC1)Cc1cn(C)c2ccccc12 11.2 µM [inhibitor, partial curve, poor fit]

Activity change, negative = inhibition, inactive:
Cc1nc2ccc([N+](=O)[O-])cc2c(=O)n1Cc1ccc(Cl)cc1 12.1%
CC(=O)Nc1nc(S(=O)(=O)c2ccc(C)cc2)c(Cl)s1 -18.5%
COc1ccc(NC(=O)C2CCC(CNS(=O)(=O)c3ccc(Br)s3)CC2)cc1OC (centres undefined) 0.871%
CCCCOc1cccc(NC(=O)CSc2nnc(C)s2)c1 7.29%
Cc1ccc(-c2ccc(CCC(=O)O)o2)cc1 0%
O=C(NCc1ccc(F)cc1)c1c(O)nc2ccccn2c1=O -25.6%
Nc1nc2ccccc2n1/N=C/c1ccc2c(c1)OCO2 -1.92%
O=C(CN1C(=O)C2CCCCC2C1=O)Nc1cccc([N+](=O)[O-])c1 (centres undefined) 7.24%
CCC(O)C1CCN(C(=O)c2ccc(OC3CCN(Cc4ccccn4)CC3)cc2)CC1 (centres undefined) -1.06%
COc1ccccc1NC(=O)C(Cc1ccccc1)NS(=O)(=O)c1ccc2c(c1)c(=O)n(C)c(=O)n2C (centres undefined) -6.47%
COc1ccccc1-c1nnc(NC(=O)c2ccc(S(=O)(=O)N(C)CC3CCCO3)cc2)o1 (centres undefined) -10.4%
CCCNC(=O)C1(C)CCCN(Cc2ccc(Cl)cc2)C1 (centres undefined) -18.1%
Clc1ccc(-c2cc(CSc3ccccc3)on2)cc1 -7.95%
CN(C)C(=S)NC(=O)C12CC3CC(C)(CC(C)(C3)C1)C2 -29.4%
COc1cccc(Nc2nnc(SCC(=O)Nc3sccc3C(N)=O)s2)c1 33.7%
CCC(=O)N1CCc2cc(Br)cc(S(=O)(=O)N(CC)Cc3ccccc3)c21 14.9%

Reference: PubChem BioAssay AID624417 (National Center for Advancing Translational Sciences (NCATS), 2012)
